Experimental findings from the supplement of paper PMC12217912 are described below.

The labels stand for the following.
B1: TEV protease; numbered along this chain (parent)
chain: MGESLFKGPRDYNPISSSICHLTNESDGHTTSLYGIGFGPFIITNKHLFRRNNGTLVVQSLHGVFKVKDTTTLQQHLVDGRDMIIIRMPKDFPPFPQKLKFREPQREERICLVTTNFQTKSMSSMVSDTSCTFPSGDGIFWKHWIQTKDGQCGSPLVSTRDGFIVGIHSASNFTNTNNYFTSVPKNFMELLTNQEAQQWVSGWRLNADSVLWGGHKVFMVKPEEPFQPVKEATQL

The list shows a part of the results. Sequences were assembled here from the parent chain. Inactive controls read about 0.05.

The assay covers variants of B1. In words: raw area under fraction-flipped curve 0-4 h after induction (AUC4h, not background-subtracted), DNA-recorder readout of cleavage of the substrate (dimensionless); higher = more cleavage of the substrate by the protease variant. The settings on record: temperature: 34 °C; time window: 0-4 h after rhamnose induction.
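Also: Bxb1 expression induced with 0.2% (w/v) L-rhamnose at OD600 near 0.5, cultures sampled hourly, flipped fraction per protease–substrate barcode pair counted by paired-end Illumina sequencing.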

On to MGESLFKGPRDYNPISSSICHLTNESDGHTTSLYGIGFGPFIITNKHLFRRNNGTLVVQSLHGVFKVKDTTTLQQHLVDGRDMIIIRMPKDFPPFPQKLKFREPQREERICLVTTNFQTKSMSSMVSDTSCTFWSGDGIFWKHWIQTKDGQCGSPLVSTRDGFIVGIHSASNFTNTNNYFTSVPKNFMELLTNQEAQQWVSGWRLNADSVLWGGHKVFMVKPEEPFQPVKEATQL [P134W], for which the “area with substrate ENLYEQS” value is 0.0626, the “area with substrate ENLYGQS” value stood at 0.0573, the “area with substrate ENLYHQS” value came out at 0.0571 and the “area with substrate ENLYIQS” value turned out to be 0.0831. The “area with substrate ENLYKQS” value came to 0.057, the “area with substrate ENLYMQS” value is 0.0641, the “area with substrate ENLYNQS” value worked out at 0.0575 and the “area with substrate ENLYPQS” value was found to be 0.0591. For the same variant, the “area with substrate ENLYQQS” value was found to be 0.0556, the “area with substrate ENLYTQS” value turned out to be 0.079, the “area with substrate ENLYVQS” value was 0.0605 and the “area with substrate ENLYWQS” value was 0.0583. The “area with substrate ENLYYQS” value stood at 0.0627.

Regarding MGESLFKGPRDYNPISSSICHLTNESDGHTTSLYGIGFGPFIITNKHLFRRNNGTLVVQSLHGVFKVKDTTTLQQHLVDGRDMIIIRMPKDFPPFPQKLKFREPQREERICLVTTNFQTKSMSSMVSDTSCTFPSGDGIFWKHWIQTKDGQCGSPLVSTRDGFIVGIHSASNFTNTNNEFTSVPKNFMELLTNQEAQQWVSGWRLNADSVLWGGHKVFMVKPEEPFQPVKEATQL [Y179E], the “area with substrate ENLYEQS” value came out at 0.0677, the “area with substrate ENLYGQS” value came to 0.0619, the “area with substrate ENLYHQS” value is 0.0271 and the “area with substrate ENLYIQS” value was 0.064. In addition, the “area with substrate ENLYNQS” value was 0.0489 and the “area with substrate ENLYSQS” value is 0.0607.

Regarding MGESLFKGPRDYNPISSSICHLTNESDGHTTSLYGIGFGPFIITNKHLFRRNNGTLVVQSLHGVFKVKDTTTLQQHLVDGRDMIIIRMPKDFPPFPQKLKFREPQREERICLVTTNFQTKSMSSMVSDTSCTFPSGVGIFWKHWIQTKDGQCGSPLVSTRDGFIVGIHSASNFTNTNNYFTSVPKNFMELLTNQEAQQWVSGWRLNADSVLWGGHKVFMVKPEEPFQPVKEATQL [D137V], the “area with substrate ENLYEQS” value came to 0.0709, the “area with substrate ENLYHQS” value turned out to be 0.0957, the “area with substrate ENLYKQS” value is 0.0823 and the “area with substrate ENLYNQS” value came out at 0.0426. Also, the “area with substrate ENLYPQS” value is 0.0877, the “area with substrate ENLYTQS” value is 0.0923, the “area with substrate ENLYVQS” value worked out at 0.146 and the “area with substrate ENLYWQS” value came out at 0.0954. Also, the “area with substrate ENLYYQS” value came to 0.0555.

MGESLFKGPRDYNPISSSICHLTNESDGHTTSLYGIGFGPFIITNKHLFRRNNGTLVVQSLHGVFKVKDTTTLQQHLVDGRDMIIIRMPKDFPPFPQKLKFREPQREERICLVTTNFQTKSMSSMVSDTSCTFPSGDGIWWKHWIQTKDGQCGSPLVSTRDGFIVGIHSASNFTNTNNYFTSVPKNFMELLTNQEAQQWVSGWRLNADSVLWGGHKVFMVKPEEPFQPVKEATQL [F140W]: the “area with substrate ENLYEQS” value was 0.078, the “area with substrate ENLYGQS” value was 0.0316, the “area with substrate ENLYHQS” value was 0.0597 and the “area with substrate ENLYIQS” value stood at 0.076. The “area with substrate ENLYNQS” value turned out to be 0.0435, the “area with substrate ENLYQQS” value turned out to be 0.0539 and the “area with substrate ENLYRQS” value was 0.0481.

As for MGESLFKGPRDYNPISSSICHLTNESDGHTTSLYGIGFGPFIITNKHLFRRNNGTLVVQSLHGVFKVKDTTTLQQHLVDGRDMIIIRMPKDFPPFPQFLKFREPQREERICLVTTNFQTKSMSSMVSDTSCTFPSGDGIFWKHWIQTKDGQCGSPLVSTRDGFIVGIHSASNFTNTNNYFTSVPKNFMELLTNQEAQQWVSGWRLNADSVLWGGHKVFMVKPEEPFQPVKEATQL [K98F], the “area with substrate ENLYEQS” value was found to be 0.0728, the “area with substrate ENLYGQS” value was found to be 0.0581, the “area with substrate ENLYHQS” value came to 0.084 and the “area with substrate ENLYIQS” value stood at 0.124. For the same variant, the “area with substrate ENLYLQS” value worked out at 0.0719, the “area with substrate ENLYNQS” value was determined as 0.0579, the “area with substrate ENLYPQS” value came out at 0.0599 and the “area with substrate ENLYRQS” value amounted to 0.0538. Moreover, the “area with substrate ENLYTQS” value is 0.0694, the “area with substrate ENLYVQS” value is 0.0918, the “area with substrate ENLYWQS” value turned out to be 0.0802 and the “area with substrate ENLYYQS” value stood at 0.0751.

Regarding MGESLFKGPRDYNPISSSICHLTNESDGHTTSLYGIGFGPFIITNKHLFRRNNGTLVVQSLHGVFKVKDTTTLQQHLVDGRDMIIIRMPKDFPPFPQPLKFREPQREERICLVTTNFQTKSMSSMVSDTSCTFPSGDGIFWKHWIQTKDGQCGSPLVSTRDGFIVGIHSASNFTNTNNYFTSVPKNFMELLTNQEAQQWVSGWRLNADSVLWGGHKVFMVKPEEPFQPVKEATQL [K98P], the “area with substrate ENLYEQS” value is 0.0634, the “area with substrate ENLYGQS” value was found to be 0.0657, the “area with substrate ENLYHQS” value came out at 0.0665 and the “area with substrate ENLYIQS” value was determined as 0.12. In addition, the “area with substrate ENLYKQS” value came out at 0.0655, the “area with substrate ENLYNQS” value amounted to 0.0557, the “area with substrate ENLYPQS” value amounted to 0.068 and the “area with substrate ENLYQQS” value is 0.0651. Further, the “area with substrate ENLYSQS” value stood at 0.055, the “area with substrate ENLYTQS” value came to 0.0755, the “area with substrate ENLYVQS” value is 0.125 and the “area with substrate ENLYYQS” value came to 0.0858.

As to MGESLFKGPRDYNPISSSICHLTNESDGHTTSLYGIGFGPFIITNKHLFRRNNGTLVVQSLHGVFKVKDTTTLQQHLVWGRDMIIIRMPKDFPPFPQKLKFREPQREERICLVTTNFQTKSMSSMVSDTSCTFPSGDGIFWKHWIQTKDGQCGSPLVSTRDGFIVGIHSASNFTNTNNYFTSVPKNFMELLTNQEAQQWVSGWRLNADSVLWGGHKVFMVKPEEPFQPVKEATQL [D79W], the “area with substrate ENLYEQS” value is 0.074, the “area with substrate ENLYGQS” value came to 0.0523, the “area with substrate ENLYHQS” value was 0.0687 and the “area with substrate ENLYIQS” value worked out at 0.0989. For the same variant, the “area with substrate ENLYKQS” value was 0.0808, the “area with substrate ENLYLQS” value amounted to 0.0848, the “area with substrate ENLYMQS” value turned out to be 0.0846 and the “area with substrate ENLYNQS” value stood at 0.0709. The “area with substrate ENLYPQS” value is 0.0792, the “area with substrate ENLYQQS” value worked out at 0.0689, the “area with substrate ENLYRQS” value worked out at 0.0706 and the “area with substrate ENLYTQS” value is 0.0905. In addition, the “area with substrate ENLYVQS” value stood at 0.104 and the “area with substrate ENLYYQS” value was determined as 0.0566.

For MGESLFKGPRDYNKISSSICHLTNESDGHTTSLYGIGFGPFIITNKHLFRRNNGTLVVQSLHGVFKVKDTTTLQQHLVDGRDMIIIRMPKDFPPFPQKLKFREPQREERICLVTTNFQTKSMSSMVSDTSCTFPSGDGIFWKHWIQTKDGQCGSPLVSTRDGFIVGIHSASNFTNTNNYFTSVPKNFMELLTNQEAQQWVSGWRLNADSVLWGGHKVFMVKPEEPFQPVKEATQL [P14K], the “area with substrate ENLYEQS” value is 0.0571, the “area with substrate ENLYGQS” value was determined as 0.0635, the “area with substrate ENLYHQS” value turned out to be 0.0563 and the “area with substrate ENLYIQS” value came out at 0.0946. In addition, the “area with substrate ENLYKQS” value amounted to 0.0883, the “area with substrate ENLYMQS” value came to 0.0881, the “area with substrate ENLYNQS” value was found to be 0.0656 and the “area with substrate ENLYPQS” value stood at 0.0631. For the same variant, the “area with substrate ENLYQQS” value is 0.0614, the “area with substrate ENLYRQS” value is 0.0517, the “area with substrate ENLYSQS” value turned out to be 0.0566 and the “area with substrate ENLYTQS” value came out at 0.0619. Besides, the “area with substrate ENLYVQS” value came to 0.109 and the “area with substrate ENLYWQS” value is 0.0744.

Regarding MGESLFKGPRDYNPISSSICHLTNESDGHTTSLYGIGFGPFIITNKHLFRRNNGTLVVQSLHGVFKVKDTTTLQQHLVDGRDMIIIRMPKDFPPFPQKLKFREPQREERICLVTTNFQTKSMSSMVSDTSCTFPSGDGIFWKHWIQTKDGQCGSPLVSTRDGFIVGIHSASNFTNTNNYFTSVPKNFMELLTNHEAQQWVSGWRLNADSVLWGGHKVFMVKPEEPFQPVKEATQL [Q194H], the “area with substrate ENLYEQS” value stood at 0.0596, the “area with substrate ENLYHQS” value was 0.0841, the “area with substrate ENLYKQS” value amounted to 0.0709 and the “area with substrate ENLYMQS” value stood at 0.104. Besides, the “area with substrate ENLYNQS” value stood at 0.0649, the “area with substrate ENLYQQS” value came out at 0.0559, the “area with substrate ENLYRQS” value is 0.057 and the “area with substrate ENLYSQS” value was 0.0598. Besides, the “area with substrate ENLYTQS” value stood at 0.0666, the “area with substrate ENLYVQS” value stood at 0.167 and the “area with substrate ENLYYQS” value turned out to be 0.077.

For MGESLFKGPRDYNPISSSICHLTNESDGHTTSLYGIGFGPFIITNKHLFRRNNGTLVVQSLHGVFKVKDTTTLQQHLVDGRDMIIIRMPKDFPPFPQKLKFREPQREERICLVTTNFQTKSMSSMVSDTSCTFPSGDGIFWKHWIQTKDGQCGSPLVSTRDGFIVGIHSASNFTNTNNYFTSVPKNFMELPTNQEAQQWVSGWRLNADSVLWGGHKVFMVKPEEPFQPVKEATQL [L191P], the “area with substrate ENLYEQS” value was 0.0512, the “area with substrate ENLYGQS” value came to 0.0635, the “area with substrate ENLYHQS” value stood at 0.0493 and the “area with substrate ENLYKQS” value was 0.0617. Moreover, the “area with substrate ENLYMQS” value stood at 0.0377, the “area with substrate ENLYNQS” value stood at 0.0416, the “area with substrate ENLYPQS” value is 0.0564 and the “area with substrate ENLYTQS” value was determined as 0.057. Besides, the “area with substrate ENLYVQS” value is 0.0599.
